From the antibiotic and cytotoxicity screens of Wong et al. (2023)
Some of the results follow.

tested on: S. aureus RN4220; assay: growth inhibition call (relative growth <= 0.2); conditions: 50 µM

Growth inhibition call, inactive:
COc1ccc(NC(=O)N(C)C[C@H]2Oc3ccc(NC(=O)Nc4ccc(C(F)(F)F)cc4)cc3C(=O)N([C@@H](C)CO)C[C@@H]2C)cc1
Cc1ccc(S(=O)(=O)Nc2ccc3c(c2)C(=O)N([C@@H](C)CO)C[C@@H](C)[C@@H](CN(C)S(=O)(=O)c2cccs2)O3)cc1
FC(F)(F)Oc1ccccc1
COc1ccccc1NC(=O)N(C)C[C@H]1OCc2ccccc2-c2c(n(C)c3ccccc23)C(=O)N([C@@H](C)CO)C[C@@H]1C
C[C@@H]1CN([C@H](C)CO)C(=O)c2cc(N(C)C)ccc2O[C@@H](C)CCCCO[C@H]1CN(C)C(=O)Nc1ccc(C(F)(F)F)cc1
C[C@@H]1CN([C@H](C)CO)C(=O)Cc2cc(NC(=O)Cc3cn(C)c4ccccc34)ccc2O[C@H]1CN(C)Cc1ccc(-c2ccccc2)cc1
Cc1noc(C)c1NC(=O)Nc1ccc2c(c1)C(=O)N([C@@H](C)CO)C[C@@H](C)[C@@H](CN(C)CC1CCCCC1)OCCCC[C@H](C)O2
C=C1CC2C3C=C(C)C4=CC(=O)CCC4(C)C3CCC2(C)C1(OC(C)=O)C(C)=O (centres undefined)
C[C@@H]1CCCCO[C@H](CN(C)Cc2ccc(C(F)(F)F)cc2)[C@H](C)CN([C@H](C)CO)C(=O)c2cc(NS(=O)(=O)c3cn(C)cn3)ccc2O1
